{
  "source": "PubChem BioAssay AID540317",
  "about": "(National Center for Advancing Translational Sciences (NCATS), 2011)",
  "note": "The whole screen tested about 390,000 compounds, of which about 2,200 (0.56%) were called active. The shares of active, inactive and inconclusive entries below differ from those in the screen. Calls follow the shape of the dose curve; as a rule, active = well fitted inhibition curve with a large enough effect; inconclusive = small, poorly fitted or top-dose-only effect; inactive = no such curve, though single readings can be large or run the other way. Where the call is inconclusive, the potency comes from a doubtful curve fit. Potency is read from the fitted curve at half-maximal effect; tags tell the direction and shape of the fitted curve.",
  "data": [
    {"biological_target": "Chromobox protein homolog 1 (Homo sapiens) (UniProt P83916)", "sequence (P83916 whole entry, looked up)": "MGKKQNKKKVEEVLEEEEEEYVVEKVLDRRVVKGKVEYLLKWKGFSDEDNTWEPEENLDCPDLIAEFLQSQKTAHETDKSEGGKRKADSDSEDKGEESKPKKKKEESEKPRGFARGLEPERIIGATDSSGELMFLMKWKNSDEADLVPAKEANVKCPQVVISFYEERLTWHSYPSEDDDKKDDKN", "test": "HTS for Inhibitors of HP1-beta Chromodomain Interactions with Methylated Histone Tails; also: nearly all actives have a fitted effect of over 70% in size", "settings": "AlphaScreen HP1-beta / biotin-H3K9me3 peptide binding; series mostly up to 114 µM; activity change, negative = inhibition: at the top concentration", "in_short": "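Compound inhibition of the preformed complex between 50 nM HP1-beta and 50 nM biotinylated H3K9me3 peptide was read by AlphaScreen. Buffer was PBS pH 7.4 with 0.01% Tween-20. Incubations ran 30 min at room temperature, with 10 ug/mL donor/acceptor beads.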", "values": [
      {"smiles": "COc1ccc(O)c(/C=c2/sc3nc4cc(C)c(C)cc4n3c2=O)c1", "Potency": "inconclusive: 14.1 µM [inhibitor, full curve]"},
      {"smiles": "Cc1cccc(-c2noc(CN(C3CCCCC3)S(=O)(=O)c3ccc(F)cc3)n2)c1", "activity change, negative = inhibition": "inactive: 30.6%"},
      {"smiles": "C=CCc1cccc(C=Nc2cccn3cc(-c4ccccc4)nc23)c1O", "Potency": "inconclusive: 20 µM [inhibitor, full curve]"},
      {"smiles": "COc1ccc(OC)c(NC(=O)c2c(NCc3sccc3C)sc3c2CCCCC3)c1", "activity change, negative = inhibition": "inactive: 0.321%"},
      {"smiles": "O=C(CN1CCN(Cc2ccccc2)CC1)N1CCCc2ccccc21", "Potency": "inconclusive: 25.1 µM [inhibitor, partial curve, poor fit]"},
      {"smiles": "COc1ccc(/C=N/Nc2nc(-c3ccc(C)cc3)c(NC(C)=O)s2)cc1", "Potency": "inconclusive: 28.2 µM [inhibitor, partial curve]"},
      {"smiles": "COc1ccc(N2CCN(c3oc(COc4ccc(Cl)cc4Cl)nc3C#N)CC2)cc1", "Potency": "inconclusive: 7.94 µM [inhibitor, partial curve, poor fit]"},
      {"smiles": "O=[N+]([O-])c1cc(Cl)c2cccnc2c1O", "Potency": "inconclusive: 50.1 µM [inhibitor, partial curve]"},
      {"smiles": "COc1ccccc1NC(=O)CCn1nc(-c2ccccc2OC)c2c(C)cc(C)nc21", "activity change, negative = inhibition": "inactive: 11.9%"},
      {"smiles": "COc1ccc2c(c1)c(C(O)CN1CCN(Cc3ccc4c(c3)OCO4)CC1)c(C)n2C", "note": "(stereo unspecified)", "Potency": "inconclusive: 15.8 µM [inhibitor, full curve, poor fit]"},
      {"smiles": "O=C(Nc1ccc(S(=O)(=O)Nc2ccc(F)cc2)cc1)c1ccc(CN2CCOCC2)cc1", "Potency": "inconclusive: 89.1 µM [inhibitor, single point]"},
      {"smiles": "COc1c2c(c(OC)c3c1c(=O)c1ccccc1n3C)OCO2", "activity change, negative = inhibition": "inactive: 55.2%"},
      {"smiles": "Cc1cc(/C=N/NC(=O)c2ccccn2)c(C)n1-c1cccc([N+](=O)[O-])c1", "Potency": "inconclusive: 79.4 µM [inhibitor, single point]"},
      {"smiles": "CCOC(=O)N1CCN(c2nc3ccccn3c(=O)c2C=O)CC1", "activity change, negative = inhibition": "inactive: 22.5%"},
      {"smiles": "CCOC(=O)N1CCc2c(sc(NCc3cccc(F)c3)c2C(=O)Nc2ccc(OC)cc2OC)C1", "Potency": "inconclusive: 44.7 µM [inhibitor, partial curve]"},
      {"smiles": "CN(C/C=C/c1ccccc1[N+](=O)[O-])Cc1ccccc1", "Potency": "inconclusive: 25.1 µM [inhibitor, full curve]"},
      {"smiles": "CN(C)C(=O)Nc1ccccc1CC[N+](=O)[O-]", "activity change, negative = inhibition": "inactive: 19.9%"},
      {"smiles": "CC(NO)C(C)(C)NO", "note": "(stereo unspecified)", "Potency": "inconclusive: 20 µM [inhibitor, full curve, poor fit]"},
      {"smiles": "COc1ccccc1NC(=O)C1=C(C)Nc2nc(CCCO)nn2C1c1cccc(O)c1", "note": "(stereo unspecified)", "activity change, negative = inhibition": "inactive: 59.5%"},
      {"smiles": "Cc1ccnc(NC(=O)c2cccc(S(=O)(=O)N3CCN(c4ccc(F)cc4)CC3)c2)c1", "activity change, negative = inhibition": "inactive: 4.54%"},
      {"smiles": "Cc1ccc(CSCC2Nc3ccc(C(=O)N4CCN(c5ccc(F)cc5)CC4)cc3NC2=O)cc1", "note": "(stereo unspecified)", "Potency": "active: 20 µM"},
      {"smiles": "COc1ccc(Nc2ccccc2NC(=O)c2ccccc2Br)cc1", "Potency": "inconclusive: 70.8 µM [inhibitor, partial curve]"},
      {"smiles": "Cc1ccc(O)c(N=Nc2ccc(S(=O)(=O)N3CCOCC3)cc2)c1", "Potency": "inconclusive: 10 µM [inhibitor, partial curve, poor fit]"},
      {"smiles": "CC1CCN(CCCOc2ccc(OCc3ccccc3)cc2)CC1", "Potency": "inconclusive: 3.55 µM [inhibitor, full curve]"},
      {"smiles": "Cc1cccc(C)c1Nc1nnc(SCC(=O)c2ccc(Br)s2)s1", "Potency": "inconclusive: 39.8 µM [inhibitor, single point]"},
      {"smiles": "COc1ccc(NC(=O)/C=C/c2ccccc2[N+](=O)[O-])c(OC)c1", "Potency": "inconclusive: 35.5 µM [inhibitor, partial curve, poor fit]"},
      {"smiles": "COc1cc(/C=C2\\C(=O)NN(c3ccc(C)cc3)C2=O)cc([N+](=O)[O-])c1O", "Potency": "inconclusive: 39.8 µM [inhibitor, partial curve]"},
      {"smiles": "CCC(C)N1CCN(S(=O)(=O)c2ccc(NC(C)=O)cc2)CC1", "note": "(stereo unspecified)", "Potency": "inconclusive: 25.1 µM [inhibitor, full curve]"},
      {"smiles": "O=C(COC(=O)CSc1ccc([N+](=O)[O-])cc1)NC1CCCCCCC1", "Potency": "inconclusive: 50.1 µM [inhibitor, partial curve]"},
      {"smiles": "O=C(O)C1Nc2c(O)cc(Cl)c([N+](=O)[O-])c2C2C=CCC12", "note": "(stereo unspecified)", "Potency": "active: 4.47 µM"},
      {"smiles": "COc1cc(CNc2ccc(N3CCN(C(C)=O)CC3)cc2)ccc1OCc1ccc(F)cc1", "Potency": "inconclusive: 31.6 µM [inhibitor, partial curve, poor fit]"},
      {"smiles": "CN(C)CCCNCC(=O)c1c(-c2ccccc2)n(C)c2ccccc12", "Potency": "inconclusive: 14.1 µM [inhibitor, partial curve, poor fit]"},
      {"smiles": "COc1ccc(Br)cc1/C=N/NC(=O)C[n+]1ccccc1", "activity change, negative = inhibition": "inactive: 33.8%"},
      {"smiles": "Cc1ccc(N2CCN(C(=O)c3cc(-c4ccc(F)cc4)[nH]c3C)CC2C)cc1", "note": "(stereo unspecified)", "Potency": "inconclusive: 56.2 µM [inhibitor, single point]"},
      {"smiles": "CC(C)=C[C@@H]1C[C@H](C)[C@H]2CC[C@H](C)c3c(O)c(O)c(C)c1c32", "Potency": "inconclusive: 35.5 µM [inhibitor, partial curve]"},
      {"smiles": "O=C(N/N=C\\C=C\\c1ccc([N+](=O)[O-])o1)c1cccs1", "Potency": "inconclusive: 79.4 µM [inhibitor, single point]"},
      {"smiles": "N#Cc1nc(Cc2ccccc2)oc1NCc1ccccc1Cl", "Potency": "inconclusive: 14.1 µM [inhibitor, full curve, poor fit]"},
      {"smiles": "O=C(/C=C/c1ccccc1)Nc1cccc(S(=O)(=O)Nc2ccccc2F)c1", "Potency": "inconclusive: 0.708 µM [inhibitor, full curve, poor fit]"},
      {"smiles": "CC1CC(=O)Nc2ccccc2N1C(=O)Cn1cnc2ccc(Br)cc2c1=O", "note": "(stereo unspecified)", "activity change, negative = inhibition": "inactive: 8.07%"},
      {"smiles": "Cc1cccc(NC(=O)CN2CCc3cc4c(cc3C2)OCCCO4)c1", "Potency": "inconclusive: 25.1 µM [inhibitor, single point]"},
      {"smiles": "Cc1ccc(-n2c(C)c(C)c3c(NCCN(C)C)ncnc32)cc1", "activity change, negative = inhibition": "inactive: -9.97%"},
      {"smiles": "c1ccc(-c2cn3nc(-c4ccccc4)c(-c4ccccc4)nc3n2)cc1", "activity change, negative = inhibition": "inactive: 189%"},
      {"smiles": "COc1cccc(CN2CCN(Cc3cccc(Oc4ccccc4)c3)CC2)c1OC", "Potency": "inconclusive: 35.5 µM [inhibitor, partial curve]"},
      {"smiles": "C=Cc1ccc(CN2C(=O)N(c3ccc(CC)cc3)S(=O)(=O)c3ccccc32)cc1", "activity change, negative = inhibition": "inactive: 32.8%"},
      {"smiles": "COc1ccc(Br)cc1S(=O)(=O)N1CCCC1", "Potency": "inconclusive: 6.31 µM [inhibitor, single point]"},
      {"smiles": "COc1ccc(N2C(=O)CC(Sc3n[nH]c(-c4ccccc4)n3)C2=O)cc1", "note": "(stereo unspecified)", "Potency": "inconclusive: 56.2 µM [inhibitor, single point]"},
      {"smiles": "O=C1N=c2ccccc2=C1c1sc(=S)n(Cc2ccccc2Cl)c1O", "Potency": "inconclusive: 14.1 µM [inhibitor, partial curve]"},
      {"smiles": "CCOc1ccc(NCc2cccn2-c2nnc(N3CCC(C(=O)NCCCN4CCCCC4)CC3)s2)cc1", "Potency": "inconclusive: 39.8 µM [inhibitor, partial curve]"},
      {"smiles": "CCOC(=O)C1(C)/C(=N/Nc2ccccc2Cl)C(=O)C(=O)N1c1ccccc1", "note": "(stereo unspecified)", "Potency": "inconclusive: 70.8 µM [inhibitor, single point]"},
      {"smiles": "O=C(CSc1nnc(-c2cc3ccccc3cc2O)n1Cc1ccco1)c1ccc(F)cc1", "Potency": "inconclusive: 35.5 µM [inhibitor, single point]"},
      {"smiles": "COc1ccc(OC)c(NC(=O)CN(C)S(=O)(=O)c2ccc3[nH]c4c(c3c2)CCCC4)c1", "Potency": "inconclusive: 56.2 µM [inhibitor, single point]"},
      {"smiles": "CCOc1ccc(NC(=O)c2c(NC(=O)Cc3ccccc3)sc3c2CCC(C)C3)cc1", "note": "(stereo unspecified)", "Potency": "inconclusive: 7.94 µM [inhibitor, full curve]"},
      {"smiles": "O=C(CSc1nc2ccc(S(=O)(=O)N3CCOCC3)cc2[nH]1)N1CCOCC1", "Potency": "inconclusive: 15.8 µM [inhibitor, full curve, poor fit]"},
      {"smiles": "O=c1c2ccccc2c(C=NCCCN2CCOCC2)c(O)n1Cc1ccc2c(c1)OCO2", "Potency": "inconclusive: 50.1 µM [inhibitor, partial curve, poor fit]"},
      {"smiles": "CCN(CC)c1ccc(NC(=O)CNCc2ccccc2Cl)c(C)c1", "Potency": "active: 25.1 µM"},
      {"smiles": "CCCCN1C(=O)C(=O)N(CC(=O)NC2CCCc3ccccc32)C1=O", "note": "(stereo unspecified)", "Potency": "inconclusive: 89.1 µM [inhibitor, single point]"},
      {"smiles": "O=S(=O)(Oc1ccccc1N1CCCCC1)c1ccccc1", "activity change, negative = inhibition": "inactive: 172%"},
      {"smiles": "COc1ccccc1N1CCN(S(=O)(=O)c2c(C)sc3ncn(CC(=O)Nc4ccccc4F)c(=O)c23)CC1", "activity change, negative = inhibition": "inactive: 23.1%"},
      {"smiles": "O=C(CCN1CCCCC1)N/N=C/c1c[nH]c2ccccc12", "activity change, negative = inhibition": "inactive: 26.3%"},
      {"smiles": "Cc1cccc(OCC(O)CN2CCN(CCN3C(=O)c4cccc5cccc(c45)C3=O)CC2)c1C", "note": "(stereo unspecified)", "Potency": "inconclusive: 35.5 µM [inhibitor, partial curve, poor fit]"},
      {"smiles": "COc1ccc(C(=O)NC(=S)N2CC(C)OC(C)C2)cc1OC", "note": "(stereo unspecified)", "activity change, negative = inhibition": "inactive: 40.7%"},
      {"smiles": "O=C(NC(=S)Nc1ccc(S(=O)(=O)N2CCOCC2)cc1)c1ccccc1[N+](=O)[O-]", "Potency": "inconclusive: 89.1 µM [inhibitor, single point]"},
      {"smiles": "CC1CN(C(=O)c2cc3cc([N+](=O)[O-])ccc3s2)CC(C)O1", "note": "(stereo unspecified)", "activity change, negative = inhibition": "inactive: 13.9%"},
      {"smiles": "CN(C)[C@@H]1CCC[C@@H]1OC(=O)C(c1ccccc1)c1ccccc1", "Potency": "inconclusive: 25.1 µM [inhibitor, partial curve, poor fit]"},
      {"smiles": "CCCCOCC1CC(CC#CCN2CCCCC2)C(=O)O1", "note": "(stereo unspecified)", "Potency": "inconclusive: 56.2 µM [inhibitor, partial curve, poor fit]"},
      {"smiles": "COc1ccc(-n2cnc(=S)[nH]c2=S)cc1", "Potency": "inconclusive: 3.98 µM [inhibitor, full curve]"}
    ]}
  ]
}
